# Measured values from PubChem BioAssay AID652104 (National Center for Advancing Translational Sciences (NCATS), 2013).
# The whole screen tested about 410,000 compounds, of which about 7,200 (1.8%) were called active. The shares of active, inactive and inconclusive entries below differ from those in the screen. Calls follow the shape of the dose curve; as a rule, active = well fitted activation curve with a large enough effect; inconclusive = small, poorly fitted or top-dose-only effect, or another doubt; inactive = no such curve, though single readings can be large or run the other way. No potency is given beside an inconclusive call; the fits are too rough.
# Assay: qHTS of TDP-43 Inhibitors; also: nearly all actives have a fitted effect of over 50% in size; as to growth rescue (activation): % of control where 0% means no effect
# Conditions: TDP-43 expressing yeast growth rescue, BacTiter-Glo, 24 h; growth rescue (activation): at 46.1 µM (top of the series) unless noted
# Procedure, shortened: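 Yeast expressing TDP-43 (pregrown in raffinose, seeded at OD600=0.02 in galactose medium) exposed to compounds 24 hr at 30 deg C. Growth read by BacTiter-Glo luminescence; rescue of toxicity appears as increased signal.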
# Potency is read from the fitted curve at half-maximal effect; tags tell the direction and shape of the fitted curve.
SMILES,Potency,growth rescue (activation)
Cc1cc(C)c(S(=O)(=O)N/N=C/c2ccc([N+](=O)[O-])o2)c(C)c1,"inconclusive [activator, single point]",–
CC1CCCC(n2cnc3cc(C(=O)O)ccc32)C1C (stereo not drawn),"inconclusive [activator, single point]",–
Fc1cccc(-c2nnn3c2nc(Cl)c2ccccc23)c1,"inconclusive [activator, single point]",–
CC(C)CNC(=O)N1[C@H](c2cccs2)[C@@H](C)C(=O)[C@@H](C)[C@@H]1c1cccs1,–,inactive: 5.72% [at 9.22 µM]
O=c1ccc(-c2ccccc2)nn1Cc1ccccc1F,"inconclusive [activator, single point]",–
COc1cc(OC)c(C(=O)Nc2ccc3ccccc3c2)cc1OC,"inconclusive [activator, single point]",–
O=C(/C=C/c1ccco1)N1CCN(c2ncccn2)CC1,inactive,–
COc1ccc(N(C(=O)c2snc(C(N)=O)c2N)C(C(=O)NC2CCCC2)c2ccco2)c(OC)c1 (stereo not drawn),inactive,–
O=C1CSC(=S)N1c1ccc(F)c(Cl)c1,active: 25.1 µM,–
CSc1ccc(CNC(=O)C2CCC(=O)N(CCc3ccc(Cl)cc3)C2)cc1 (stereo not drawn),"inconclusive [activator, partial curve, poor fit]",–
Cc1ccc(C)c2c1[nH]c1ccccc12,active: 14.1 µM,–
COc1cc(OC)c(C=CC(=O)c2ccccc2O)c(OC)c1,inactive,–
O/N=C/c1cn(-c2ccccc2)nc1-c1ccc2c(c1)OCCO2,"inconclusive [activator, single point]",–
Cc1nc2ccc(NS(=O)(=O)c3ccc(F)cc3F)cc2s1,active: 12.6 µM,–
CC(C)c1ccc(NC(=O)COC(=O)CC2CCCC2)cc1,"inconclusive [activator, partial curve]",–
O=S(=O)(Nc1ccc(Nc2ccccc2)cc1)c1ccc(F)cc1,"inconclusive [activator, single point]",–
O=[N+]([O-])c1ccc(N/N=C/C=C/c2ccco2)cc1,"inconclusive [activator, partial curve]",–
O=c1[nH]c2ccccc2n1Cc1ccc(F)cc1,"inconclusive [activator, full curve, poor fit]",–
O=[N+]([O-])CC(c1ccccc1)c1c[nH]c2ccccc12 (stereo not drawn),"inconclusive [activator, partial curve]",–
Cc1nsc2nc3c(F)c(F)c(F)c(F)c3cc12,"inconclusive [activator, single point]",–
CC1=C(C(=O)Nc2ccc(C(=O)N3CCN(c4cccc(Cl)c4)CC3)cc2)SCCO1,"inconclusive [activator, single point]",–
Cc1ccc2cc3cc(C(=O)N4CCN(c5ccccc5)CC4)sc3nc2c1,inactive,–
CC(C)Sc1nc2ccccc2c(=O)[nH]1,"inconclusive [activator, partial curve]",–
Cc1cc(=O)oc2c(C)c3occc3cc12,active: 2.51 µM,–
O=C(Cn1cnc2c(nnn2Cc2ccc(F)cc2)c1=O)N1CCN(c2ccccc2)CC1,inactive,–

SMILES,Potency,growth rescue (activation)
COc1ccc(C/C(N)=N/OC(=O)c2cccc([N+](=O)[O-])c2)cc1,–,inconclusive: -78.5% [activator]
O=[N+]([O-])c1ccc(-c2nc(-c3cccs3)c(-c3cccs3)[nH]2)cc1,active: 3.16 µM,–
O=C(C#Cc1ccccc1)Nc1ccccc1F,"inconclusive [activator, partial curve]",–
O=C(NCc1cccnc1)C1CC(c2cccc(Br)c2)=NO1 (stereo not drawn),inactive,–
O=C(NC(=S)Nc1cccc(C(F)(F)F)c1)c1csnn1,"inconclusive [activator, single point]",–
CCc1cccc(-n2nnc(S(=O)(=O)c3ccc(OC)cc3)c2C)c1,"inconclusive [activator, single point]",–
Clc1cccc(-c2sc(Nc3ccccc3)n[n+]2-c2ccccc2)c1Cl,"inconclusive [activator, single point]",–
Cc1cc(NC(=O)c2c(F)cccc2F)n(-c2nc3ccccc3[nH]2)n1,"inconclusive [activator, single point]",–
C=CCNc1sc(C(=O)c2ccccc2)c(N)c1-c1nc2ccccc2s1,–,inconclusive: 30.5% [activator]
CCOC(=O)c1c(C)n(C)c2ccc(OCC(O)Cn3nc(C)c(Br)c3C)cc12 (stereo not drawn),active: 15.8 µM,–
O=C(N/N=C/C=C/c1ccccc1)NC1CCCCC1,active: 17.8 µM,–
CCCCCc1cc(O)c2c(C)cc(=O)oc2c1,active: 3.16 µM,–
S=C(Nc1ccc2cn[nH]c2c1)Nc1ccccc1Cl,"inconclusive [activator, single point]",–
N#Cc1ccccc1OCC(=O)N1CCN(c2ccccc2)CC1,"inconclusive [activator, partial curve]",–
O=C(Cc1coc2ccc3ccccc3c12)N1CCN(c2ncccn2)CC1,"inconclusive [activator, partial curve]",–
c1ccc(Nc2cccc(Nc3ccccc3)c2)cc1,"inconclusive [activator, partial curve]",–
CC(C)C1Nc2ccc(C(=O)O)cc2C2C=CCC21 (stereo not drawn),active: 17.8 µM,–
Cc1ccc(-n2nnnc2CCl)cc1,"inconclusive [activator, partial curve]",–
COc1ccc(NC(=O)Nc2cc(F)ccc2C)cc1,"inconclusive [activator, partial curve]",–
Cc1ccc(-c2nnc(SCC(=O)N(CC(C)C)c3c(N)n(Cc4ccccc4)c(=O)[nH]c3=O)n2N)cc1,inactive,–
CCn1cc(C(=O)N2CCN(c3cccc(C)c3)C(C)C2)c(=O)c2cc(S(=O)(=O)N3CCOCC3)ccc21 (stereo not drawn),inactive,–
CN1OC(COC(=O)c2ccc(Cl)cc2)CC1c1ccccc1 (stereo not drawn),"inconclusive [activator, partial curve]",–
Cc1cc(C)cc(OC(=O)CN2C(=O)c3ccccc3C2=O)c1,"inconclusive [activator, partial curve, poor fit]",–
COc1cccc(CSc2nc3nc(C)cc(C)n3n2)c1,"inconclusive [activator, single point]",–
CCOc1ccccc1OCC(=O)Nc1nnc(COC)s1,"inconclusive [activator, single point]",–

SMILES,Potency,growth rescue (activation)
CCN(CC)c1nc(NN)nc(Nc2ccc(C)c(Cl)c2)n1,active: 12.6 µM,–
C=C(Cl)COc1ccc2c(CCC)cc(=O)oc2c1,"inconclusive [activator, single point]",–
C=CCOn1c(C)c(C(C)=O)c2c3no[n+]([O-])c3ccc21,active: 7.08 µM,–
O=C(Cn1nc(Cl)nc1Cl)c1ccc([N+](=O)[O-])cc1,"inconclusive [activator, partial curve]",–
Cc1cc(=O)c2cc(C(=O)Nc3cccc(C)c3C)ccc2[nH]1,–,inactive: 0% [at 9.22 µM]
Cc1cc(C(=O)N2CCC2(C)C(=O)NCC(C)(C)C)nn1C (stereo not drawn),inactive,–
N#C/C(=C\c1ccccc1)C(=O)NC1CC1,"inconclusive [activator, single point]",–
C[C@@H]1Cn2cnc(C(=O)NCC(=O)OC(C)(C)C)c2C(=O)N1,"inconclusive [activator, full curve, poor fit]",–
COc1ccccc1NC(=S)NC(C)=O,"inconclusive [activator, partial curve]",–
Cc1cccc(Nc2ccc([N+](=O)[O-])cn2)c1,"inconclusive [activator, partial curve]",–
Cc1ccc(C)c(NC(=O)c2cnc3sc(N4CCOCC4)nn3c2=O)c1,inactive,–
O=C(NCC1CCCO1)c1ccc2c(=O)n(Cc3cccc(Br)c3)c(=S)[nH]c2c1 (stereo not drawn),inactive,–
CCC(c1nnnn1-c1ccc2c(c1)OCCO2)N1CCN(c2ccccc2)CC1 (stereo not drawn),"inconclusive [activator, partial curve]",–
CCS(=O)(=O)N1CCN(c2ccc(Cl)cc2[N+](=O)[O-])CC1,"inconclusive [activator, partial curve, poor fit]",–
Cc1cc(Cl)ccc1OCCCC(=O)N1CCOCC1,"inconclusive [activator, full curve]",–
COc1ccc(/C=N/OCC(=O)Nc2ccc3c(c2)OCO3)c(OC)c1,"inconclusive [activator, single point]",–
Cc1cccc(C=CC(=O)c2ccccc2)c1,"inconclusive [activator, single point]",–
NS(=O)(=O)c1cccc(NC(=O)c2cccc(S(=O)(=O)N3CCCCCC3)c2)c1,"inconclusive [activator, single point]",–
COc1cccc2ccc(CC(O)(c3ccccc3)c3ccccc3)nc12,inactive,–
Cc1cc(S(=O)(=O)Nc2c(NC3CCCCC3)c3ccccc3oc2=O)ccc1F,inactive,–
CCc1c(C)sc(NC(=O)c2cccs2)c1C(N)=O,"inconclusive [activator, single point]",–
CSc1ccccc1NC(=O)CN(Cc1ccc(Cl)cc1)S(C)(=O)=O,"inconclusive [activator, single point]",–
COc1ccc(CCNc2ncnc3onc(-c4ccc(Cl)cc4)c23)c(OC)c1,"inconclusive [activator, full curve]",–
